Experimental data reported in PubChem BioAssay AID504832 (National Center for Advancing Translational Sciences (NCATS), 2011).
The campaign covered roughly 310,000 compounds. About 18,000 (5.8%) were called active. This list was built around the results that the source calls inconclusive (neither active nor inactive); the mix of calls is not that of the screen. Calls follow the shape of the dose curve; as a rule, active = well fitted inhibition curve with a large enough effect; inconclusive = small, poorly fitted or top-dose-only effect, or another doubt; inactive = no such curve, though single readings can be large or run the other way. No potency is given beside an inconclusive call; the fits are too rough.

Experiment: Primary qHTS for delayed death inhibitors of the malarial parasite plastid, 48 hour incubation
Settings: P. falciparum luciferase growth in erythrocytes; series mostly up to 28.7 µM; activity change, negative = inhibition: at the top concentration
Method in brief: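 Read-out is firefly luciferase luminescence from an integrated reporter in P. falciparum, so falling signal marks reduced parasite growth. Infected erythrocytes were at 2% hematocrit and 0.1% parasitemia (final) in Albumax-supplemented RPMI 1640.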
% is scaled to controls: 0 for no effect and ±100 for the full control effect; potency is read from the fitted curve at half-maximal effect; tags tell the direction and shape of the fitted curve.

| SMILES | Potency | activity change, negative = inhibition |
| --- | --- | --- |
| CCOC(=O)c1c(C)n(OCc2ccccc2)c2ccc3nonc3c12 | inconclusive [inhibitor, single point] |  |
| COc1ccc(S(=O)(=O)N2CCOC23CCN(S(=O)(=O)c2c(C)cc(C)cc2C)CC3)cc1 | inconclusive [inhibitor, single point] |  |
| Cc1csc(SCC(=O)N(c2ccccc2)C(C)C)n1 | active: 10.4 µM |  |
| CC(Sc1nnc(COc2ccccc2)n1-c1ccccc1)C(=O)O (stereo not drawn) |  | inactive: -26.1% |
| CCN(CC)C(=O)COc1ccc(S(=O)(=O)N2CCCC2)cc1 | inconclusive [inhibitor, partial curve, poor fit] |  |
| C=CCn1ccc(=NC=C(C#N)C#N)c2ccccc21 | inconclusive [inhibitor, partial curve] |  |
| Cc1cccc(NS(=O)(=O)c2cn(C)c(=O)n(C)c2=O)c1C |  | inactive: 41.6% |
| O=C(Nc1cccc(Cl)c1)NC1CCCCC1 |  | inactive: 102% |
| CNS(=O)(=O)c1ccc(NC(=O)c2cc(-c3ccncc3)nc3ccc(Cl)cc23)cc1 | active: 13.1 µM |  |
| CCOC(=O)c1ccc(-n2c(CN(CC)CC)nc3ccc([N+](=O)[O-])cc3c2=O)cc1 | inconclusive [inhibitor, partial curve] |  |
| Cc1ccn2c(-c3n[nH]c(=S)n3Cc3ccccc3)c(C)nc2c1 |  | inactive: -6.97% |
| CCOc1ccc(NC(=O)CCN2C(=O)c3cccc([N+](=O)[O-])c3C2=O)cc1 |  | inactive: 6.58% |
| CCc1ccccc1NC(=O)c1ccc(NCCc2ccccc2)c([N+](=O)[O-])c1 | inconclusive [inhibitor, partial curve, poor fit] |  |
| CSc1ccc(NC(=O)N2CC=C(n3c(=O)[nH]c4ccccc43)CC2)cc1 | inconclusive [inhibitor, partial curve] |  |
| CCNC(=O)NC1(C(=O)Nc2ccc3c(c2)CCC3)CCCCC1 |  | inactive: 1.08% |
| CCOC(=O)c1c(C)nc2sc3c(=O)n(-c4ccc(C(C)=O)cc4)nnc3c2c1-c1ccc(OC)cc1 | inconclusive [inhibitor, partial curve, poor fit] |  |
| Oc1ccc2ccccc2c1/C=N/Nc1nnc(-c2ncc[nH]2)c2ccccc12 | active: 2.62 µM |  |
| O=C(CSc1ccc(-c2ccncc2)nn1)c1ccccc1 |  | inactive: 9.03% |
| CCCCCOC(=O)Cc1c(C)nc(-c2ccccc2)[nH]c1=O | active: 1.85 µM |  |
| Cc1ccc(N(CC(=O)NC2CCCCC2)C(=O)CCC(=O)Nc2nccs2)cc1 | inconclusive [inhibitor, partial curve] |  |
| COc1ccc(C(=O)NCC(c2ccc(F)cc2)N2CCOCC2)cc1S(=O)(=O)N1CCCC1 (stereo not drawn) | inconclusive [inhibitor, full curve, poor fit] |  |
| CC(=O)N/C(=C\c1ccc(F)cc1)C(=O)OCc1ccccc1 |  | inactive: 3.2% |
| CC(=O)c1cccc(S(=O)(=O)Nc2cc(C(F)(F)F)ccc2N2CCOCC2)c1 | inconclusive [inhibitor, single point] |  |

| SMILES | Potency | activity change, negative = inhibition |
| --- | --- | --- |
| O=C(CN1CCc2ccccc21)Nc1ccc2c(c1)OCCCO2 |  | inactive: 217% |
| Cc1cc(C(=O)Nc2ccc(C)c(S(=O)(=O)N3CCOCC3)c2)c(C)o1 | inconclusive [inhibitor, full curve, poor fit] |  |
| COc1ccc(-c2nc3c4ccccc4ccn3c2CN2CCCCC2)cc1 | inconclusive [inhibitor, single point] |  |
| O=C(CCc1nc(-c2ccccc2)no1)Nc1cccnc1 | inconclusive [inhibitor, partial curve, poor fit] |  |
| CCCNC(=O)C1CCC(CNS(=O)(=O)c2ccc3c(c2)N(C(C)=O)CCO3)CC1 (stereo not drawn) | inconclusive [inhibitor, partial curve, poor fit] |  |
| Cc1c(NC(=O)c2cccc(NC(=O)COc3ccccc3C#N)c2)c(=O)n(-c2ccccc2)n1C | inconclusive [inhibitor, single point] |  |
| O=C(N/N=C/c1cccc(Cl)c1)C1CCCC1 |  | inactive: 25.5% |
| CCCCOC(=O)/C(=C/C=C/c1ccccc1)NC(=O)c1ccccc1 | inconclusive [inhibitor, single point] |  |
| Nc1ccc2nc(-c3cc(Cl)c(N)c(Cl)c3)[nH]c2c1 | active: 2.94 µM |  |
| Brc1ccc(-c2csc(Nc3nc(-c4ccc(Br)cc4)cs3)n2)cc1 | inconclusive [inhibitor, single point] |  |
| CCOC(=O)N1CCN(C(=O)c2ccc(CS(=O)(=O)c3ccccc3OC)o2)CC1 |  | inactive: 1.11% |
| CCCCCCCC/C=C\CCCCCCCC(=O)NCc1ccc(O)c(OC)c1 | inconclusive [inhibitor, single point] |  |
| CC(=O)c1ccc(C(=O)N2CCCC(CCC(=O)N(C)CCc3ccccn3)C2)s1 (stereo not drawn) |  | inactive: 5.84% |
| CC1(C)Oc2ccc(C(=O)N3CCCCC3)cc2N(CC(=O)NCc2ccccc2)C1=O | inconclusive [inhibitor, partial curve, poor fit] |  |
| Cc1cccc(C2c3[nH]c4ccccc4c3CCN2C(=O)c2ccc(=O)[nH]c2)n1 (stereo not drawn) | inconclusive [inhibitor, single point] |  |
| O=c1oc2ccccc2c(Nc2ccc(F)cc2)c1[N+](=O)[O-] | inconclusive [inhibitor, partial curve, poor fit] |  |
| COCCCNC(=O)Cn1cc(/C=C(\C#N)C(=O)N2CCN(c3ccccc3)CC2)c2ccccc21 | inconclusive [inhibitor, partial curve, poor fit] |  |
| Cn1c(N)c(C(=O)COC(=O)Cc2ccc(Cl)cc2)c(=O)n(C)c1=O | inconclusive [inhibitor, single point] |  |
| COc1ccc(Cc2nnc(NC(=O)C3CCN(C(=O)c4ccco4)CC3)s2)cc1 | inconclusive [inhibitor, partial curve, poor fit] |  |
| COc1ccc2cc(C(C)C(=O)N3CCC(C)CC3)ccc2c1 (stereo not drawn) | inconclusive [inhibitor, single point] |  |
| Cc1ccc(Cn2cc(SCC(N)=O)c3ccccc32)cc1 | inconclusive [inhibitor, full curve, poor fit] |  |
| COc1ccc(NC(=O)C(=O)NCCO)cc1Cl |  | inactive: 8.29% |
| O=c1[nH]c(CN2CCN(c3ccc([N+](=O)[O-])cc3)CC2)nc2ccsc12 | inconclusive [inhibitor, single point] |  |

| SMILES | Potency | activity change, negative = inhibition |
| --- | --- | --- |
| Cc1cccc(N(C(=O)c2snc(C(N)=O)c2N)C(C(=O)NC2CCCC2)c2ccc(C)o2)c1 (stereo not drawn) | active: 8.28 µM |  |
| O=C1c2ccccc2NC(c2cccc([N+](=O)[O-])c2)N1CCc1ccccc1 (stereo not drawn) | inconclusive [inhibitor, single point] |  |
| COc1ccc([N+](=O)[O-])cc1NC(=O)Nc1cccc(Cl)c1 | active: 9.28 µM |  |
| Cc1[nH]c2ccccc2c1C(=O)CCl | inconclusive [inhibitor, partial curve] |  |
| O=C(c1cc2nc(-c3ccco3)cc(C(F)(F)F)n2n1)N1CCN(c2ccccn2)CC1 | inconclusive [inhibitor, single point] |  |
| CN(c1ccc(C(=O)NCc2ccco2)cc1)S(C)(=O)=O |  | inactive: 12% |
| O=S(=O)(c1cccc(F)c1)N1CCC(CO)(Cc2cccc(F)c2)CC1 | inconclusive [inhibitor, single point] |  |
| Cc1cc(-n2nnc3ccccc32)nc2ccccc12 |  | inactive: 69.5% |
| COc1cc(C2C(C#N)=C(N)Oc3cc(N(C)C)ccc32)cc2c1OCO2 (stereo not drawn) | inconclusive [inhibitor, full curve, poor fit] |  |
| COC(=O)c1cc(=O)n2c(sc3ccccc32)c1C#N |  | inactive: 71.3% |
| CCCCC[C@H](O)/C=C/[C@@H]1[C@@H](C/C=C\CCCC(=O)O)[C@H]2CO[C@@H]1C2 | inconclusive [inhibitor, single point] |  |
| Cc1cccc(NC(=O)C2CCN(S(=O)(=O)c3ccc4c(c3)NC(=O)CO4)CC2)c1 | inconclusive [inhibitor, partial curve] |  |
| O=C(Cc1c[nH]c2ccccc12)N1CCN(S(=O)(=O)c2cccc(Cl)c2Cl)CC1 | inconclusive [inhibitor, partial curve] |  |
| COc1ccc2nc(NC(=O)C3CC(=O)N(c4ccc5c(c4)OCCO5)C3)sc2c1 (stereo not drawn) | inconclusive [inhibitor, partial curve, poor fit] |  |
| CC(C)CCOc1ccc(/C=C2\CCn3c2nc2cc(C(=O)O)ccc2c3=O)cc1 | inconclusive [inhibitor, partial curve, poor fit] |  |
| Cc1cc(C)c(S(=O)(=O)N2CCCC(C(=O)NCc3ccncc3)C2)c(C)c1 (stereo not drawn) |  | inactive: 4.58% |
| COc1ccccc1CNC(=O)COC(=O)C1CCN(S(=O)(=O)c2ccccc2)CC1 | inconclusive [inhibitor, single point] |  |
| CC[n+]1c(/C=C/N(C)c2ccccc2)oc2ccccc21 | active: 0.928 µM |  |
| Cc1cc(C)n(Cc2ccc(NC(=O)c3ccc(COc4ccccc4Br)cc3)cc2)n1 | inconclusive [inhibitor, partial curve] |  |
| N=C1C=CC=C2C1=NC1(CCCCC1)N2O | inconclusive [inhibitor, single point] |  |
| CC(Cl)C(=O)NN=C(c1ccccc1)c1ccccc1 (stereo not drawn) |  | inactive: 4.21% |
| O=C(Nc1cccc(NC(=O)c2cccc([N+](=O)[O-])c2)n1)c1cccc([N+](=O)[O-])c1 |  | inactive: 31.2% |
